# In article PMC4336329 (PLoS ONE, 2015):
# In all, about 310,000 compounds went through this assay and about 2,200 (0.71%) showed an effect of 50% or more. Effects have a minus sign here. The list shows a part of the results.
# Target: human ether-à-go-go-related gene (hERG) potassium channel (human, UniProt Q12809)
# Experiment: primary screen, population patch clamp on CHO cells stably expressing hERG
# Sequence of human ether-à-go-go-related gene (hERG) potassium channel (Q12809 whole entry, looked up): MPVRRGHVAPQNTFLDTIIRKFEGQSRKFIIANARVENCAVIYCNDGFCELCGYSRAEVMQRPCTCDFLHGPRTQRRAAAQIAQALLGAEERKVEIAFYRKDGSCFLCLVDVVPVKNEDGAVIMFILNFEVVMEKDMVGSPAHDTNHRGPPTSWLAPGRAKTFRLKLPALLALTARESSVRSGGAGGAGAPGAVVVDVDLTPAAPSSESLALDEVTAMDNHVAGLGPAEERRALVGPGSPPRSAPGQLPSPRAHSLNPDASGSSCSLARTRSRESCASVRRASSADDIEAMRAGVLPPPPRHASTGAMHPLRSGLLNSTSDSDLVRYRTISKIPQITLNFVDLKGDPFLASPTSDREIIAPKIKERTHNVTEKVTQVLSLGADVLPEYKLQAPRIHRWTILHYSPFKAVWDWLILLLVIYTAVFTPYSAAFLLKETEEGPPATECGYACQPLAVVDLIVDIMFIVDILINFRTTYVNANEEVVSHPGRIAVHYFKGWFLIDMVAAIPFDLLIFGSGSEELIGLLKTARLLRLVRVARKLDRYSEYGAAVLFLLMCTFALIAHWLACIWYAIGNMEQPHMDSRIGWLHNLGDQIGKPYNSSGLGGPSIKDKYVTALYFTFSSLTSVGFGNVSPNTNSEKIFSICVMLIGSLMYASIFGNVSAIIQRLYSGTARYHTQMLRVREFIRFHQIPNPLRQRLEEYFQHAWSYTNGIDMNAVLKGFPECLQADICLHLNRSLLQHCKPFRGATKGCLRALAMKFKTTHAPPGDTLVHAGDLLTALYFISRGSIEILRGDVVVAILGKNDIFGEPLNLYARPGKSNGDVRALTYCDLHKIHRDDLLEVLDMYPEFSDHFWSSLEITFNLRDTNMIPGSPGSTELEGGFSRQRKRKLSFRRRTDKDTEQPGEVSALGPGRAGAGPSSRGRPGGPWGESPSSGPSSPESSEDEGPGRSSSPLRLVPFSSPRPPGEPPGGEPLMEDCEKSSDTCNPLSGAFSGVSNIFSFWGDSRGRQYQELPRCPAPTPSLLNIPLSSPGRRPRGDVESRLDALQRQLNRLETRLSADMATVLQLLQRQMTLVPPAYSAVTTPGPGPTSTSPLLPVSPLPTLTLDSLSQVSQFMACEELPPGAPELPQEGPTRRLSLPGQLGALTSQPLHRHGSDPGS
row,Structure (SMILES),"hERG current change (%, negative = inhibition) at 1uM [%]"
1,Cc1ccc(S(=O)(=O)N(OCc2ccccc2)C(C)C(=O)O)cc1 (centres unmarked),12.2
2,CC1CCN(c2ccc(C(F)(F)F)cc2N)CC1,11
3,Cc1n[nH]c(=S)n(/N=C/c2ccccn2)c1=O,11.6
4,CCOc1ccccc1NC(=S)NNS(=O)(=O)c1c(C)cc(C)cc1C,9.13
5,COC(=O)c1cccc(-n2cnnn2)c1,4.49
6,O=C(CSc1nnnn1-c1ccccc1)c1cc2ccccc2oc1=O,9.85
7,CC(N)Cc1c[nH]c2ccc(OCc3cccs3)cc12.Cl (centres unmarked),-2.35
8,CCOC(=O)Cc1ncccc1C(=O)Nc1ccc(OC(F)(F)F)cc1,8.51
9,COc1ccc(OC)c(C2C(C(=O)c3cc4ccccc4o3)=C(O)C(=O)N2c2cc(C)on2)c1 (centres unmarked),8.37
10,Cl.O=C(COc1ccccc1CNCc1ccccc1)Nc1ccccc1,10.2
11,CNc1snc(C)c1C(=O)OCC(=O)c1cc(F)ccc1OC,4.98
12,COc1ccc(N2CCN(C(=S)NC(C)c3ccccc3)CC2)cc1 (centres unmarked),13.3
13,COC(=O)c1ccc2c(c1)C(=O)/C(=C/c1ccc(C)cc1)O2,-3.76
14,CC(OC(=O)c1cn(C)c2ccccc12)C(=O)N1CCCC1 (centres unmarked),9.65
15,CC(C)NC(=S)N1CCn2c(nc3ccccc32)C1,17.6
16,COc1ccc(C(CNC(=O)c2cc(S(=O)(=O)NCc3ccccc3)ccc2C)N2CCOCC2)cc1 (centres unmarked),-5.4
17,Cc1cc(C(=O)Nc2ccccc2N2CCOCC2)ccc1[N+](=O)[O-],4.18
18,COCc1cc(Sc2ccc(Cl)cc2)nc(-c2ccccc2)n1,-1.26
19,COc1ccc(C2CC(c3cccc(OC)c3)n3nc(N)nc3N2)cc1 (centres unmarked),-1.29
20,COc1cc(C=O)ccc1OC(=O)Nc1ccccc1,7.65
21,Cc1ccc(C)c(Nc2cc(C)nc3ncnn23)c1,5.24
22,CCOC(=O)Cn1c(-c2cccnc2)nc(-c2ccccc2)c1-c1ccccc1,4.57
23,CC(=O)c1sc(N)nc1C,13.9
24,Cc1cc(OCCCC(=O)Nc2cccc(-n3cnnn3)c2)ccc1Cl,18.3
25,CC(C)CCC(C(=O)O)C(C)CC(=O)NNC(=O)c1ccco1 (centres unmarked),2.9
26,CCC(NC(=O)C(C)NC)C(=O)N1CCCC1C(=O)NC1CCCc2ccccc21.O=CO (centres unmarked),14.7
